In the supplement of paper PMC4166925:
± gives the standard deviation of the averaged measurements. Over roughly 33,000 sequences, “E-score (dimensionless, -0.5 to 0.5)” has its median near -0.049; the highest 2% begin near 0.37. Some of the results follow.

What follows are sequences tested on T1, PmTbr T-box DNA-binding domain (GST fusion) (assay: PBM E-score of 8-mer (E-score (dimensionless, -0.5 to 0.5)); Tbr is Tbrain of the sea star Patiria miniata (Pm) or the sea urchin Strongylocentrotus purpuratus (Sp); higher = stronger binding preference; most listed sequences are background and not binding sites). Conditions: the construct has about 5 more residues each side.
T1 sequence: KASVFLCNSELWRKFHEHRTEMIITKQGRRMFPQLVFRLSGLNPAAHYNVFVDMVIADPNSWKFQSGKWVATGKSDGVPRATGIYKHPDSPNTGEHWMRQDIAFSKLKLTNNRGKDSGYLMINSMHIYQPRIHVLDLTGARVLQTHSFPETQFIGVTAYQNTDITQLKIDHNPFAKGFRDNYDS
Protocol: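 Universal protein-binding microarray (Agilent AMADID 016060, 60-bp probes with a 35-bp variable region) incubated with 200 nM GST-fused Patiria miniata Tbr T-box DNA-binding domain (residues 272-466) in PBS pH 7.5. Scored for every ungapped 8-mer (given with its reverse complement) by the Universal PBM Analysis Suite as E-score (modified Wilcoxon-Mann-Whitney enrichment, range -0.5 to 0.5; >0.45 counts as bound) and Z-score of median probe intensity. Two replicate arrays (datasets 1 and 2).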

| Sequence | PBM E-score of 8-mer |
| --- | --- |
| AGTAGTGA | 0.12 ± 0.00018 |
| AGAGGGAT | -0.24 ± 0.052 |
| GCGGACAA | -0.2 ± 0.023 |
| AAGAGTTG | 0.0135 ± 0.019 |
| AGTATGCA | -0.0701 ± 0.037 |
| CCAATAAA | -0.152 ± 0.032 |
| GACCTGTA | -0.16 ± 0.025 |
| AGTCCGGA | -0.133 ± 0.019 |
| AGTAGCGA | 0.206 ± 0.01 |
| GGAAGCTA | -0.17 ± 0.046 |
| CTGGTTGA | -0.00131 ± 0.03 |
| ACGGCATG | -0.1 ± 0.0089 |
| CACCACGA | 0.00554 ± 0.041 |
| AGACACAG | -0.0132 ± 0.095 |
| CAGTATGA | -0.207 ± 0.006 |
| CGGTATGC | -0.0503 ± 0.063 |
| AAAATAAT | -0.161 ± 0.072 |
| CTCGATAA | 0.0911 ± 0.064 |
| AAAAGAAC | -0.139 ± 0.12 |
| AGACACAT | 0.184 ± 0.0023 |
| CCCCGTCG | -0.107 ± 0.018 |
| ACATTTGG | 0.126 ± 0.011 |
| GTAGCTGA | -0.0719 ± 0.034 |
| GCACAGAC | -0.0257 ± 0.13 |
| CGAAGGTA | 0.0601 ± 0.022 |

| Sequence | PBM E-score of 8-mer |
| --- | --- |
| ATAAAGGA | -0.2214 ± 0.0019 |
| ACGCAGAC | -0.187 ± 0.099 |
| ATGGGTGG | -0.00349 ± 0.064 |
| ACCGTTCA | 0.0738 ± 0.014 |
| ATGTGACG | 0.31 ± 0.02 |
| GTGCAAGA | 0.108 ± 0.032 |
| ATTATTCC | -0.2662 ± 0.00095 |
| ACTCACAT | -0.0309 ± 0.043 |
| GCCCGCCC | -0.21 ± 0.071 |
| CACAGTAA | 0.0121 ± 0.1 |
| GTTAACCA | 0.0306 ± 0.001 |
| GAAAGTGC | 0.154 ± 0.035 |
| GCTGAGCA | -0.0778 ± 0.016 |
| CTTTAAGA | -0.256 ± 0.067 |
| GAGCGACA | 0.2353 ± 0.0016 |
| CCAGACCC | -0.0808 ± 0.0004 |
| ACCAGATG | -0.261 ± 0.042 |
| CAGATTCG | 0.0952 ± 0.046 |
| CGGGCCCC | -0.291 ± 0.021 |
| GGTGACAC | 0.4691 ± 0.0035 |
| AGGCGCCA | 0.363 ± 0.0098 |
| CCGAGGGA | -0.236 ± 0.0027 |
| GGGACTCA | -0.363 ± 0.0047 |
| TCGCACGA | 0.324 ± 0.0049 |
| CCTGCTCC | -0.126 ± 0.033 |

| Sequence | PBM E-score of 8-mer |
| --- | --- |
| AATCATGA | -0.073 ± 0.025 |
| TCAAGACA | 0.0831 ± 0.0023 |
| AGTTTGGC | 0.11 ± 0.018 |
| AATAAAAG | 0.0212 ± 0.11 |
| CCAAGTCA | 0.0507 ± 0.024 |
| AAAAACTT | -0.093 ± 0.017 |
| CAAACAGG | -0.107 ± 0.034 |
| CAGCGGGC | -0.225 ± 0.021 |
| CAGCTCCA | -0.0434 ± 0.045 |
| AATACAAG | -0.0932 ± 0.0024 |
| CCGCCCCC | -0.19 ± 0.05 |
| CTCGAAAC | -0.0654 ± 0.027 |
| AAGCAAAA | -0.0708 ± 0.028 |
| CACACGGG | 0.16 ± 0.032 |
| GCTTCATA | -0.109 ± 0.011 |
| CTGTGGGA | 0.124 ± 0.032 |
| CAAATACA | -0.164 ± 0.0057 |
| GCGATAGC | 0.218 ± 0.035 |
| TAGAGAAA | -0.2 ± 0.054 |
| CTAATTTC | -0.0627 ± 0.075 |
| ATCGATCC | 0.0015 ± 0.0016 |
| CATGCGCG | 0.149 ± 0.081 |
| ATGCTTGG | -0.135 ± 0.1 |
| CTACGAGA | -0.127 ± 0.026 |
| AGAAGAGA | -0.124 ± 0.08 |

| Sequence | PBM E-score of 8-mer |
| --- | --- |
| ATTTTTCA | 0.0346 ± 0.093 |
| AAGAAGTC | 0.0125 ± 0.0032 |
| CCTCCCCG | -0.0393 ± 0.061 |
| TAACCGCA | -0.0839 ± 0.031 |
| AGGAATTA | -0.222 ± 0.037 |
| CGATCAAA | -0.0882 ± 0.061 |
| AATGGAGC | -0.227 ± 0.0096 |
| GGTCCGAC | -0.117 ± 0.024 |
| GGGTTAAA | -0.245 ± 0.033 |
| CTTCTGTA | 0.0317 ± 0.032 |
| CAGTTTCG | -0.0351 ± 0.088 |
| GCGACCGA | 0.0508 ± 0.085 |
| AACTTCCC | -0.0518 ± 0.071 |
| CGAGAAAG | 0.0893 ± 0.019 |
| AAGTTTGC | 0.0555 ± 0.13 |
| CGAGCAGA | -0.129 ± 0.0091 |
| GCCGCGGC | -0.135 ± 0.062 |
| AACGCACA | 0.0559 ± 0.0019 |
| ATCATGGA | -0.277 ± 0.034 |
| ATTTCCTC | -0.0319 ± 0.022 |
| CATAGCGG | -0.00624 ± 0.058 |
| AACTCGTA | 0.0893 ± 0.082 |
| CGCTCTGC | -0.0795 ± 0.086 |
| AGATATCA | 0.124 ± 0.067 |
| TGGTATAA | -0.214 ± 0.15 |

| Sequence | PBM E-score of 8-mer |
| --- | --- |
| GAACTTCC | -0.179 ± 0.032 |
| CATAACGC | 0.167 ± 0.0098 |
| CATAGCGC | 0.122 ± 0.03 |
| AAGCTCAG | -0.0772 ± 0.0017 |
| TAAGCTCA | -0.121 ± 0.092 |
| AAACGAAA | -0.182 ± 0.12 |
| CGTTTGAG | -0.258 ± 0.075 |
| CCACACGA | 0.0258 ± 0.03 |
| TAGGAACA | 0.00458 ± 0.053 |
| AACGCGTT | 0.193 ± 0.053 |
| GTTCCCCA | -0.00769 ± 0.079 |
| GATGTGAA | 0.237 ± 0.039 |
| AAACTTCC | -0.173 ± 0.03 |
| GATATACC | -0.114 ± 0.031 |
| AGGAGGGC | -0.158 ± 0.029 |
| CTGGGAGC | -0.0864 ± 0.038 |
| CCATTCCA | -0.207 ± 0.028 |
| CCATACCC | -0.214 ± 0.065 |
| CGGAGACA | -0.0405 ± 0.06 |
| CTGTGGGC | -0.112 ± 0.032 |
| GGCACCGA | -0.0859 ± 0.03 |
| AAAACATC | -0.0672 ± 0.081 |
| CAACAGAG | -0.237 ± 0.031 |
| AACGCGTC | 0.226 ± 0.019 |
| GCGAAATA | 0.265 ± 0.059 |

| Sequence | PBM E-score of 8-mer |
| --- | --- |
| GAAGCAAC | 0.0778 ± 0.07 |
| CGCGGTGA | 0.138 ± 0.0032 |
| ACCCTTAT | 0.00575 ± 0.04 |
| CCCCCGGA | -0.222 ± 0.011 |
| AATCGCGC | 0.311 ± 0.024 |
| AAAATTCG | -0.117 ± 0.023 |
| AGCTCACC | -0.00751 ± 0.022 |
| AGTCCGAG | -0.0576 ± 0.054 |
| ACAACCAT | 0.0298 ± 0.04 |
| AGCACTGG | 0.0172 ± 0.081 |
| TACTACTA | -0.287 ± 0.022 |
| CCACTGAG | -0.101 ± 0.02 |
| GATCCAAA | -0.0214 ± 0.12 |
| ACCGCATC | -0.0361 ± 0.016 |
| CGCGATTC | 0.199 ± 0.024 |
| AGATCACC | -0.045 ± 0.0096 |
| TACCGGGA | -0.182 ± 0.063 |
| AGTACAGA | 0.00177 ± 0.049 |
| AACATTAA | -0.16 ± 0.045 |
| ACACTCGT | 0.262 ± 0.034 |
| CTCATCTA | -0.306 ± 0.035 |
| CGAATCAG | -0.0425 ± 0.0058 |
| ATACCTAG | -0.21 ± 0.021 |
| AAGAGGAG | 0.0185 ± 0.061 |
| GAGTTATC | -0.00609 ± 0.018 |

| Sequence | PBM E-score of 8-mer |
| --- | --- |
| CACCTTTA | 0.404 ± 0.013 |
| AGTGTGTA | 0.172 ± 0.073 |
| CATCCCAC | 0.0297 ± 0.081 |
| GATTCAAA | -0.129 ± 0.046 |
| CGGCGCCA | 0.199 ± 0.025 |
| ACGCCCCG | 0.173 ± 0.1 |
| CCTGACAC | 0.435 ± 0.0077 |
| CAGAGCCG | -0.0931 ± 0.019 |
| ACTAATGG | -0.0207 ± 0.047 |
| GATAGTGC | 0.0563 ± 0.046 |
| AATGTCCA | -0.128 ± 0.028 |
| CAAATTCA | 0.27 ± 0.062 |
| ACACCACT | 0.254 ± 0.012 |
| CCACCCGC | 0.0903 ± 0.013 |
| AACAAGCT | -0.168 ± 0.035 |
| GTTTGGGA | -0.0818 ± 0.083 |
| GTAATTGA | 0.00724 ± 0.073 |
| ATGGCAAT | 0.0272 ± 0.044 |
| CTAGCTAC | 0.0604 ± 0.0093 |
| GACCGGGA | -0.215 ± 0.053 |
| GATTTACC | -0.0594 ± 0.011 |
| CTCAGGAG | -0.0963 ± 0.019 |
